Experimental data as given in PubChem BioAssay (NCI).
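Step 1: Grow cells in 96-well plates. Step 2: Expose to compound for 48 hours at 5 concentrations. Step 3: Interpolate endpoints linearly; if unreached, use highest concentration. GI50 is the concentration that inhibits growth by half. TGI denotes the concentration required for complete inhibition of growth.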

System: NCI-H322M lung
Test: growth of human tumour cells (NCI), 48 h

Structure (SMILES): O=C(CSc1nnc(-c2ccc3nc(-c4ccc(Cl)cc4)[nH]c3c2)o1)Nc1ccc(Br)cc1
- GI50: 8.53 µM
- TGI: 23.4 µM
